# Laboratory results from the supplement of paper PMC10037445.
# The full ranking holds about 2,900 compounds; the median of “NF-kB SEAP reporter activity, fold change vs agonist alone” is about 0.99, and the highest 2% start at about 2.6. This is one part of the list.
# Tests used:
# [1] = tested on: RAW-Dual; test: NF-kB SEAP reporter activity, fold change vs agonist alone; higher = enhanced NF-kB activity
# Procedure, shortened: (§1)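 RAW-Dual macrophages (50,000 cells/well in DMEM, 384-well plates) received 50 nL of library stock by pin tool, then a PRR agonist 1 h later, and were kept at 37 °C, 5% CO2. After 20 hours, supernatant was read for IRF by QuantiLuc luminescence and for NF-κB by QuantiBlue absorbance at 620 nm. Reporter activity is fold change over agonist-alone wells. Cytotoxic wells had IncuCyte confluency below 70% of agonist controls in both mask sets.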
# [2] = tested on: RAW-Dual; test: NF-kB SEAP reporter activity, fold change vs agonist alone; cytotoxicity flag (confluency mask): not cytotoxic; higher = enhanced NF-kB activity
# Procedure, shortened: as §1
# [3] = tested on: RAW-Dual; test: NF-kB SEAP reporter activity, fold change vs agonist alone; cytotoxicity flag (confluency mask): cytotoxic (confluency <70% of control); higher = enhanced NF-kB activity
# Procedure, shortened: as §1
# [4] = agonist: ODN 1826 (TLR9) 0.5 ug/mL
# [5] = agonist: Pam2CSK4 (TLR2/6) 0.1 ug/mL
# [6] = agonist: Pam3CSK4 (TLR2/1) 0.1 ug/mL
# [7] = library stock concentration (final ~1000-fold dilution): 10 mM, cytotoxicity flag (confluency mask): not cytotoxic, agonist: Imiquimod (TLR7) […]
# [8] = library stock concentration (final ~1000-fold dilution): 10 mM, cytotoxicity flag (confluency mask): not cytotoxic, agonist: MPLA (TLR4) […]
smiles,measurement,setting,value
NC(N)=NCCCC(N)C(=O)NC(CCCN=C(N)N)C(=O)N1CCCC1C(=O)N1CC(O)CC1C(=O)NCC(=O)NC(Cc1cccs1)C(=O)NC(CO)C(=O)N1Cc2ccccc2CC1C(=O)N1C(C(=O)NC(CCCN=C(N)N)C(=O)O)CC2CCCCC21 (stereo not drawn),NF-kB SEAP reporter activity,"[1]; library stock concentration (final ~1000-fold dilution): 2 mM water, cytotoxicity flag (confluency mask): not cytotoxic, agonist: Imiquimod (TLR7) […]",0.945
same,NF-kB SEAP reporter activity,"[1]; library stock concentration (final ~1000-fold dilution): 2 mM water, cytotoxicity flag (confluency mask): not cytotoxic, agonist: MPLA (TLR4) […]",1.05
NC(N)=NCCCC(N)C(=O)NC(CCCN=C(N)N)C(=O)N1CCCC1C(=O)N1CC(O)CC1C(=O)NCC(=O)NC(Cc1cccs1)C(=O)NC(CO)C(=O)N1Cc2ccccc2CC1C(=O)N1C(C(=O)NC(CCCN=C(N)N)C(=O)O)CC2CCCCC21 (stereo not drawn) (library stock concentration (final ~1000-fold dilution): 2 mM water),NF-kB SEAP reporter activity,[2]; agonist: LPS (TLR4) 0.1 ug/mL,0.985
same,NF-kB SEAP reporter activity,[2]; [4],1.06
same,NF-kB SEAP reporter activity,[2]; [5],1.1
same,NF-kB SEAP reporter activity,[2]; [6],0.962
CN(C)CCN(Cc1ccc(Cl)cc1)c1ccccn1.Cl,NF-kB SEAP reporter activity,[1]; [7],1.45
same,NF-kB SEAP reporter activity,[1]; [8],0.986
CN(C)CCN(Cc1ccc(Cl)cc1)c1ccccn1.Cl (library stock concentration (final ~1000-fold dilution): 10 mM),NF-kB SEAP reporter activity,[2]; agonist: LPS (TLR4) 0.1 ug/mL,1.15
same,NF-kB SEAP reporter activity,[2]; [4],0.683
same,NF-kB SEAP reporter activity,[2]; [5],0.912
same,NF-kB SEAP reporter activity,[2]; [6],1.21
CC(C)=CCc1c(-c2ccc(O)cc2O)oc2c3c(cc(O)c2c1=O)OC(C)(C)C=C3,NF-kB SEAP reporter activity,"[1]; library stock concentration (final ~1000-fold dilution): 10 mM, cytotoxicity flag (confluency mask): cytotoxic (confluency <70% of control), agonist: Imiquimod (TLR7) […]",0.77
same,NF-kB SEAP reporter activity,"[1]; library stock concentration (final ~1000-fold dilution): 10 mM, cytotoxicity flag (confluency mask): cytotoxic (confluency <70% of control), agonist: MPLA (TLR4) […]",0.843
CC(C)=CCc1c(-c2ccc(O)cc2O)oc2c3c(cc(O)c2c1=O)OC(C)(C)C=C3 (library stock concentration (final ~1000-fold dilution): 10 mM),NF-kB SEAP reporter activity,[3]; agonist: LPS (TLR4) 0.1 ug/mL,0.535
same,NF-kB SEAP reporter activity,[3]; [4],0.487
same,NF-kB SEAP reporter activity,[3]; [5],0.216
same,NF-kB SEAP reporter activity,[3]; [6],0.248
O=C(Nc1ccc(O)c(C(=O)O)c1)c1cccc(NC(=O)c2ccco2)c1,NF-kB SEAP reporter activity,[1]; [7],0.942
same,NF-kB SEAP reporter activity,[1]; [8],0.969
O=C(Nc1ccc(O)c(C(=O)O)c1)c1cccc(NC(=O)c2ccco2)c1 (library stock concentration (final ~1000-fold dilution): 10 mM),NF-kB SEAP reporter activity,[2]; agonist: LPS (TLR4) 0.1 ug/mL,0.971
same,NF-kB SEAP reporter activity,[2]; [4],0.895
same,NF-kB SEAP reporter activity,[2]; [5],1.05
same,NF-kB SEAP reporter activity,[2]; [6],1.06
c1ccc(-c2n[nH]cc2-c2ccnc3ccccc23)nc1 (library stock concentration (final ~1000-fold dilution): 2 mM),NF-kB SEAP reporter activity,[2]; agonist: LPS (TLR4) 0.1 ug/mL,2.19
same,NF-kB SEAP reporter activity,[2]; [4],1.01
same,NF-kB SEAP reporter activity,[2]; [5],0.992
same,NF-kB SEAP reporter activity,[2]; [6],0.919
c1ccc(-c2n[nH]cc2-c2ccnc3ccccc23)nc1,NF-kB SEAP reporter activity,"[1]; library stock concentration (final ~1000-fold dilution): 2 mM, cytotoxicity flag (confluency mask): not cytotoxic, agonist: Imiquimod (TLR7) […]",0.961
same,NF-kB SEAP reporter activity,"[1]; library stock concentration (final ~1000-fold dilution): 2 mM, cytotoxicity flag (confluency mask): not cytotoxic, agonist: MPLA (TLR4) […]",1.15
CC(=O)Nc1ccc(C(=O)Nc2ccccc2N)cc1,NF-kB SEAP reporter activity,[1]; [7],2.21
same,NF-kB SEAP reporter activity,[1]; [8],1.74
CC(=O)Nc1ccc(C(=O)Nc2ccccc2N)cc1 (library stock concentration (final ~1000-fold dilution): 10 mM),NF-kB SEAP reporter activity,[2]; agonist: LPS (TLR4) 0.1 ug/mL,2.28
same,NF-kB SEAP reporter activity,[2]; [4],2.86
same,NF-kB SEAP reporter activity,[2]; [5],0.724
same,NF-kB SEAP reporter activity,[2]; [6],0.832
COc1cc2c(Nc3ccc(NC(=O)c4ccccc4)cc3)ncnc2cc1OCCCN1CCOCC1 (library stock concentration (final ~1000-fold dilution): 10 mM),NF-kB SEAP reporter activity,[2]; agonist: LPS (TLR4) 0.1 ug/mL,0.931
same,NF-kB SEAP reporter activity,[2]; [4],0.193
same,NF-kB SEAP reporter activity,[2]; [5],1.23
same,NF-kB SEAP reporter activity,[2]; [6],1.27
COc1cc2c(Nc3ccc(NC(=O)c4ccccc4)cc3)ncnc2cc1OCCCN1CCOCC1,NF-kB SEAP reporter activity,[1]; [7],1.03
same,NF-kB SEAP reporter activity,[1]; [8],0.862
CC(C)(C)C(O)/C(=C\c1ccc(Cl)cc1)n1cncn1 (stereo not drawn),NF-kB SEAP reporter activity,[1]; [7],1.32
same,NF-kB SEAP reporter activity,[1]; [8],0.988
CC(C)(C)C(O)/C(=C\c1ccc(Cl)cc1)n1cncn1 (stereo not drawn) (library stock concentration (final ~1000-fold dilution): 10 mM),NF-kB SEAP reporter activity,[2]; agonist: LPS (TLR4) 0.1 ug/mL,1.52
same,NF-kB SEAP reporter activity,[2]; [4],1.05
same,NF-kB SEAP reporter activity,[2]; [5],1.2
same,NF-kB SEAP reporter activity,[2]; [6],1.39
